Reference: publication PMC11142921, “Antibody discovery identifies regulatory mechanisms of protein arginine deiminase 4” (Nature Chemical Biology, 2024)

B1: hPAD4 N438A (enzyme)
chain: not shown
notes: Protein arginine deiminase 4, human, point mutant (negative control); Mutant of the hPAD4 construct m1; source: cloned and expressed as hPAD4 (E. coli, Ni-NTA)
B2: hPAD4 N438R (enzyme)
chain: not shown
notes: as for B1

Target: the molecule itself
Assay: SEC; analytical SEC, AdvanceBio SEC column 300 Å; each analyte injected at 10 μM; 50 mM Tris pH 8, 400 mM NaCl

| Protein | binding result |
| --- | --- |
| B1 | binds |
| B2 | binds |
